# Laboratory results as given in PMC4336329 (PLoS ONE, 2015).
# Out of some 310,000 compounds screened, about 14,000 (4.5%) showed an effect of 50% or more. The effect is printed as a negative number. The list shows a part of the results.
# Biological target: human ether-à-go-go-related gene (hERG) potassium channel (human, UniProt Q12809)
# Experiment: primary screen, population patch clamp on CHO cells stably expressing hERG
# 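Note: peak tail current of the secondary pulse compared with the same well before compound.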
# Chain of human ether-à-go-go-related gene (hERG) potassium channel (Q12809 whole entry, looked up): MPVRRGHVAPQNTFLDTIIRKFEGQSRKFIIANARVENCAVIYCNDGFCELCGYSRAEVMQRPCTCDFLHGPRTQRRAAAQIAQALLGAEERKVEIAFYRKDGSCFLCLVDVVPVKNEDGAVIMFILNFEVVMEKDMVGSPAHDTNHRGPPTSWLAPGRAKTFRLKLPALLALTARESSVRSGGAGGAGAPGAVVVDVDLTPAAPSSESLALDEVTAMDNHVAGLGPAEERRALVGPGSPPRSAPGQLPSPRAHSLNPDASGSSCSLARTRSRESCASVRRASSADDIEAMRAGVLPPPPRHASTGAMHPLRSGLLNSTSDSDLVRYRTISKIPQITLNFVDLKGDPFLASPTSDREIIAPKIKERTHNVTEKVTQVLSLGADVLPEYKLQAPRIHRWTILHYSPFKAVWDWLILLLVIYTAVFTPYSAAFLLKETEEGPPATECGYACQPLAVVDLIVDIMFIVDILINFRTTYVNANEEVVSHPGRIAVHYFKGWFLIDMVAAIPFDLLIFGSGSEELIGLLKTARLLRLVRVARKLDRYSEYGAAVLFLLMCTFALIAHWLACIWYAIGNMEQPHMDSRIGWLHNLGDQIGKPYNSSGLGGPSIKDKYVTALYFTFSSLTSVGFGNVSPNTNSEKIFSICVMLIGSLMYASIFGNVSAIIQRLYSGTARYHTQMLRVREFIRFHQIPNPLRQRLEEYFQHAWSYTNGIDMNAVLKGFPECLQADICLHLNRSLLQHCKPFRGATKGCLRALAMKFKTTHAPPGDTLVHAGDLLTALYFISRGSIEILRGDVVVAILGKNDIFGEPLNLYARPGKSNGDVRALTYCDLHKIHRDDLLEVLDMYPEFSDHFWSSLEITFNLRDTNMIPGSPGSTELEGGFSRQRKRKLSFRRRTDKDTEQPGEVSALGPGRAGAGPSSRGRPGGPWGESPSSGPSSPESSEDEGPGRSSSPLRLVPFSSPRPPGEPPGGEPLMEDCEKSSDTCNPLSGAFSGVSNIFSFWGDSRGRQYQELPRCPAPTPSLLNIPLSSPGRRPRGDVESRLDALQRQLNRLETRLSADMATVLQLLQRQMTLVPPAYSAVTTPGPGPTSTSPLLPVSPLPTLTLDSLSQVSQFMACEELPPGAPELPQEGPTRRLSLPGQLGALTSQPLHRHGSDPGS
row,Compound,"hERG current change (%, negative = inhibition) at 10uM [%]"
1,COc1ccc(CNCc2cccc(Oc3ccccc3)c2)cc1,-43.5
2,Cn1c(SCC(=O)N2CCOCC2)nnc1-c1cccc(NC(=O)c2ccccc2)c1,23.8
3,Cc1ccccc1SCc1noc(C(=O)NCC2CCCO2)c1C(=O)O (stereo not shown),5.23
4,Cc1cc(F)ccc1S(=O)(=O)N1CCCOC1CNC(=O)C(=O)NCC(C)C (stereo not shown),-6.26
5,O=P(/C(=N/O)Sc1ccccc1)(N1CCOCC1)N1CCOCC1,-26.8
6,COc1ccc(-n2nc(C(=O)NCC(=O)NCCCN3CCOCC3)c3ccccc3c2=O)cc1OC,17.7
7,CCOC(=O)c1c(NC(=O)CSc2nnc(C)c(=O)[nH]2)sc2c1CCCC2,7.54
8,C[C@@]12C(=O)N(c3cccc(Br)c3)C(=O)N1[C@H](c1ccc(Cl)cc1)[C@@H]1C(=O)N(C3CCCCC3)C(=O)[C@@H]12,4.38
9,Cc1ccc(C(NC(N)=O)c2ccccc2)cc1 (stereo not shown),8.71
10,COc1cccc2c(N/N=C/c3ccc(O)c(O)c3)cc(C)nc12,18.9
11,CCN(Cc1ccccc1)C(=O)COc1ccccc1,9.21
12,Cc1ccc(NC(=O)/C(C#N)=N/Nc2ccc(C(=O)O)cc2)c(C)c1,1.82
13,CCOc1ccc(CN(C)C(=O)c2cc3ccccc3o2)cc1OC,-4
14,Cc1cccc(CCNC(=O)Cn2ncc3c([nH]c4ccccc43)c2=O)c1,14.2
15,COc1ccc(COc2cc(-c3cccc(OC)c3)nc3ccc(NC(=O)c4ccc(C)cc4)cc23)cc1,-2.81
16,O=C(Nc1ccc(Cl)cc1)NC1CCCC1Cc1ccco1 (stereo not shown),-15.3
17,Cc1cccc(NC(=O)CCC(=O)Nc2nnc(C3CCCCC3)s2)c1,20.8
18,COc1ccc(N(Cc2ccccc2)S(=O)(=O)c2cc(C(=O)O)ccc2Cl)cc1,5.3
19,O=c1c2ccccc2nc(SCc2ccccc2)n1Cc1ccco1,1.3
20,O=C(Nc1ccccn1)c1cccnc1,-7.84
21,CN(C)CCN(C(=O)CN1C(=O)c2ccccc2C1=O)c1nc2cc3c(cc2s1)OCO3.Cl,-57
22,COc1ccccc1NC(=O)NCc1ccc(C)n1C,12.8

row,Compound,"hERG current change (%, negative = inhibition) at 10uM [%]"
1,CC(C)N(C(=O)CSc1nc2ccccc2n1-c1ccccc1)C(C)C,3.18
2,COc1ccc(OC)c(NC(=O)CSc2ccc3nnc(-c4cccnc4)n3n2)c1,-61.1
3,O=C(OCc1nnc(-c2ccccc2)o1)c1cccnc1Cl,8.07
4,CN(C)C(=O)c1cn(-c2ccccc2)nc1-c1cc2ccccc2oc1=O,-33.4
5,C/C(N)=C(/C#N)C(=O)COC(=O)[C@@H](NC(=O)c1ccccc1Cl)C(C)C,4.16
6,O=C1NC(=S)N(C(=O)c2ccc(F)cc2)/C1=C/c1cccnc1,4.79
7,O=C(c1ccc(F)cc1)c1c[nH]c(C(=O)NCc2cccnc2)c1,2.97
8,COc1ccc(NS(=O)(=O)c2cn(C)c(=O)n(C)c2=O)c(OC)c1,-0.648
9,CCOC(=O)N1CCN(c2nc(-c3ccccc3)c3cc(C)ccc3n2)CC1,-8.98
10,Cc1ccccc1-c1noc(C23CC4CC(CC(C4)C2)C3)n1,14.7
11,O=C(CSc1ccc2nnc(CCNC(=O)c3ccccc3)n2n1)NCc1ccc(F)cc1,2.34
12,O=C(Oc1coc(CSc2ncccn2)cc1=O)c1ccco1,3.46
13,COc1ccc2c(c1OC)C(=O)N(c1ccccn1)C2,-3.1
14,Cc1cccn2c(=O)c3cc(C(=O)NCCc4ccccc4)c(=N)n(CC4CCCO4)c3nc12 (stereo not shown),-82.3
15,COc1ccc(C(C)C)cc1S(=O)(=O)N1CCN(C)CC1,9.86
16,CC(OC(=O)c1cnccn1)C(=O)Nc1nc(-c2cccc([N+](=O)[O-])c2)cs1 (stereo not shown),-35
17,Cc1cc(=O)n2[nH]c(C(F)(F)F)c(-c3ccccc3)c2n1,3.6
18,COc1ccc(CCC(=O)OCC(=O)Nc2ccc3[nH]c(=O)[nH]c3c2)cc1,2.2
19,CC(=O)Nc1nnc(Cc2c[nH]c3ccccc23)s1,24.7
20,CCn1nc(C(=O)OCC(=O)c2cc(C)n(Cc3cccs3)c2C)c2ccccc2c1=O,7.14
21,CCn1c(SCC(=O)N(C)CCC#N)nc2cc(S(=O)(=O)N3CCOCC3)ccc21,14.1
22,Cc1ccccc1C(OCCN(C)C)C1CCCCC1.O=C(O)C(=O)O (stereo not shown),-16.3

row,Compound,"hERG current change (%, negative = inhibition) at 10uM [%]"
1,COc1ccc(C(CNC(=O)CCC(=O)c2ccc(C)s2)N2CCOCC2)cc1 (stereo not shown),-6.59
2,O=C(Nc1ccc(F)cc1F)c1ccc(S(=O)(=O)N2CCCCC2)cc1,1.1
3,COc1ccc(SN=C2C(C)=CC(=O)C=C2C)cc1,11.6
4,Cc1ccc(NC(=O)Cc2ccsc2)cc1Cl,11.7
5,CC(C)(CO)N=Cc1c(O)[nH]c2ccccc12,-6.21
6,O=C(CN1CCN(C(=O)N2CCOCC2)CC1)Nc1ccc(Br)cc1,-72.5
7,O=S(=O)(c1ccc(Br)cc1)N1CCCc2ccccc21,2.51
8,COC(=O)c1cc(NS(=O)(=O)c2ccc(C)c3ccccc23)ccc1N1CCOCC1,0.538
9,NNC(=O)c1sc2cc(C(F)(F)F)cnc2c1-c1cccs1,7.73
10,COc1ccc(OC)c2[nH]c(=O)c(CCNC(=O)c3ccc4c(c3)OCO4)cc12,-10.2
11,CCOC(=O)[C@H]1[C@H]2COc3cc(OC)ccc3[C@@H]2N2C(=O)N(c3cccc(Cl)c3)C(=O)[C@@]12C,1.79
12,CC(C)(C)OC(=O)N/N=C\c1ccc[nH]1,11
13,O=C(C1CCCC1)N1CCN(S(=O)(=O)c2ccc(F)c(F)c2F)CC1,-6.2
14,Cc1cc2c(cc1C)NC1(C(=O)Nc3ccccc31)C1=C(CC(C)(C)CC1=O)N2 (stereo not shown),4.27
15,Cc1nn(Cc2ccccc2)c(=O)c2nn(-c3ccc(Cl)cc3)c(C)c12,0.936
16,O=C(OCC(=O)N1CCCc2ccccc21)c1ccc(C(F)(F)F)cc1,-8.53
17,O=c1[nH]c(NCc2ccco2)nnc1Cc1ccccc1Cl,4.77
18,CCCOCC1CC2(SC(=Nc3ccc(C)cc3)NC2=O)C(=O)O1 (stereo not shown),2.19
19,Cn1c(=O)c(=O)n(C)c2cc(N3CCCC3)c(NS(=O)(=O)c3ccc(Cl)cc3)cc21,-44.3
20,Cc1cc(/C=C2\NC(=S)NC2=O)c(C)n1-c1cccnc1,8.09
21,COc1ccccc1NS(=O)(=O)c1ccc(Cl)cc1,-19.5
22,COc1ccc(N2C(=NC(=O)CCC3CCCC3)SC3CS(=O)(=O)CC32)cc1 (stereo not shown),12.4

row,Compound,"hERG current change (%, negative = inhibition) at 10uM [%]"
1,O=C(CCc1ccccc1)NNC(=O)Nc1ccccc1,1.26
2,CCOc1ccc(NC(=O)C2CCN(S(=O)(=O)c3c(C)n[nH]c3C)CC2)cc1,-4.37
3,O=C(CSc1nnnn1-c1ccc(F)cc1)c1ccc(O)c(O)c1,-33
4,O=C(O)c1cccc2cc(-c3ccccc3)oc(=O)c12,17.3
5,CC(C)(C)NC(=O)NC(=O)CN1CCN(S(=O)(=O)/C=C/c2ccccc2)CC1,2.49
6,Cc1cc(C)nc(N(C#N)CCOc2ccc(Cl)cc2)n1,-9.86
7,CC(NS(=O)(=O)/C=C/c1ccccc1)c1ccccc1 (stereo not shown),1.99
8,CS(=O)(=O)c1[nH]nc(-c2ccccc2Cl)c1C#N,9.78
9,Cc1nnc(SCc2ccc(C(=O)O)cc2)s1,-0.778
10,COc1cccc(C(=O)CC(C(=O)O)c2ccc(Cl)cc2)c1 (stereo not shown),10.1
11,COc1ccc(C(C)NC(=O)C23CC4CC(CC(C4)C2)C3)cc1OC (stereo not shown),3.91
12,Cc1cc(C(=O)CSc2nnc(-c3ccc(OC(F)F)cc3)o2)c(C)n1Cc1cccs1,3.5
13,CCC(CC)C1=NN2C(=N)/C(=C\c3cc(C)n(-c4cccc(C)c4)c3C)C(=O)N=C2S1,-0.816
14,CCC(=O)N1CCc2cc(S(=O)(=O)NCCC(=O)Nc3cc(C)cc(C)c3)ccc21,-3.31
15,O=C(NCCCN1CCOCC1)C1CC(=O)N(C2CCCCC2)C1 (stereo not shown),13.3
16,CC(=O)N/C(N)=N/c1nc2cc([N+](=O)[O-])ccc2o1,8.18
17,NC(=O)c1ccc[n+](Cc2ccc(-c3ccccc3)cc2)c1.[Cl-],12.2
18,COc1nc(-c2cccs2)cc(-c2ccc(C)cc2)c1C#N,25.7
19,CC(C)OC(=O)C1C(=O)CC(C)(O)C(C(=O)OC(C)C)C1c1ccc([N+](=O)[O-])cc1 (stereo not shown),7.32
20,Cc1ccc(Sc2ncccc2N)cc1,7.42
21,CCOc1ccc(C(=O)CN2CCN(S(=O)(=O)c3ccc(F)cc3)CC2)cc1,-63
22,CC(=O)Nc1ccc(S(=O)(=O)N2CCC(N(C)CCC(C)C)CC2)cc1.Cl,-46.8
